Assay results: the antibiotic and cytotoxicity screens of Wong et al. (2023)
The other results are listed elsewhere or left out.

Legend:
HSkMC = human skeletal muscle cells; experiment: cytotoxicity call (relative viability < 0.9); conditions: 10 µM
HepG2 = experiment: cytotoxicity call (relative viability < 0.9); conditions: 10 µM
S. aureus RN4220 = experiment: growth inhibition call (relative growth <= 0.2); conditions: 50 µM

| Structure (SMILES) | cytotoxicity call (HSkMC) | cytotoxicity call (HepG2) | growth inhibition call (S. aureus RN4220) |
| --- | --- | --- | --- |
| C[C@@H]1CN([C@@H](C)CO)C(=O)c2cccc(NC(=O)C3CC3)c2O[C@H]1CN(C)S(=O)(=O)c1cn(C)cn1 | inactive | inactive | inactive |
| COc1cccc(S(=O)(=O)Nc2ccc3c(c2)C(=O)N(C)C[C@@H](OC)[C@H](C)CN(C(=O)Cc2cccnc2)[C@@H](C)CO3)c1 | inactive | inactive | inactive |
| O=C(C[C@H]1CC[C@H]2[C@@H](COC[C@@H](O)CN2C(=O)Nc2cccc(Cl)c2)O1)NCc1ccccc1F | inactive | inactive | inactive |
| O=C(CN1CCOCC1)NCC[C@@H]1CC[C@H](NC(=O)Nc2ccccc2)[C@@H](CO)O1 | inactive | inactive | inactive |
| C[C@H](CO)N1C[C@H](C)[C@@H](CN(C)S(=O)(=O)c2cccs2)Oc2ccc(NC(=O)C3CC3)cc2CC1=O | inactive | inactive | inactive |
| COc1ccc(NC(=O)Nc2ccc3c(c2)C(=O)N([C@H](C)CO)C[C@@H](C)[C@H](CN(C)Cc2ccc(C(F)(F)F)cc2)O3)cc1 | inactive | active | inactive |
| C[C@H](CO)N1C[C@H](C)[C@@H](CN(C)C(=O)Nc2cccc3ccccc23)OCCCC[C@H](C)Oc2ccc(NC(=O)NC3CCCCC3)cc2C1=O | active | inactive | inactive |
| C[C@@H]1CN([C@H](C)CO)C(=O)c2cccc(NS(=O)(=O)c3ccccc3)c2O[C@H]1CN(C)S(=O)(=O)c1cccs1 | inactive | inactive | inactive |
| CO[C@H](CN(C)S(=O)(=O)c1ccc(F)cc1)[C@H](C)CN([C@H](C)CO)S(=O)(=O)c1cccc(Cl)c1 | inactive | inactive | inactive |
| CCS(=O)(=O)N1CC[C@@H](O)[C@@H]1Cc1cnn(C)c1 | inactive | inactive | inactive |
| COc1ccc(S(=O)(=O)N(C)C[C@@H]2OCCCC[C@@H](C)Oc3ccc(NC(=O)Nc4ccc5c(c4)OCO5)cc3C(=O)N([C@@H](C)CO)C[C@H]2C)cc1 | inactive | inactive | inactive |
| Cc1ccc(S[C@]2(C(=O)NC(C)C)CC(=O)N(Cc3ccccc3C(F)(F)F)[C@@H]2c2ccc(CO)cc2I)cc1 | inactive | inactive | inactive |
| CCc1cc(Nc2nccc(-c3c(-c4ccc(OC)c(C(=O)Nc5c(F)cccc5F)c4)nc4ccccn34)n2)c(OC)cc1N1CCC(N2CCN(S(C)(=O)=O)CC2)CC1 | inactive | inactive | inactive |
| C[C@@H]1CCCCO[C@@H](CN(C)C(=O)Nc2cccc3ccccc23)[C@@H](C)CN([C@@H](C)CO)C(=O)c2cc(NC(=O)C3CCCCC3)ccc2O1 | active | inactive | inactive |
| CNC(=O)[C@H]1C[C@H]2CCN(S(=O)(=O)N(C)C)C[C@H]2O1 | inactive | inactive | inactive |
| C[C@@H]1CN([C@@H](C)CO)C(=O)CCCn2cc(nn2)CO[C@@H]1CN(C)C(=O)Nc1ccccc1C(F)(F)F | inactive | inactive | inactive |
| C[C@H](CO)N1C[C@H](C)[C@H](CN(C)S(=O)(=O)c2cn(C)cn2)OCCCC[C@H](C)Oc2ccc(NC(=O)c3ccncc3)cc2C1=O | inactive | inactive | inactive |
| Cc1noc(C)c1S(=O)(=O)N(C)C[C@H]1OCCCC[C@H](C)Oc2ccc(NC(=O)Nc3cccc4ccccc34)cc2C(=O)N([C@H](C)CO)C[C@H]1C | inactive | inactive | inactive |
| C[C@@H]1CN([C@H](C)CO)C(=O)c2cc(NC(=O)Nc3ccc(C(F)(F)F)cc3)ccc2O[C@H]1CN(C)S(=O)(=O)c1ccc(Cl)cc1 | inactive | active | inactive |
| C[C@H](CO)N1C[C@H](C)[C@H](CN(C)C(=O)Nc2ccccc2)Oc2ccc(NS(=O)(=O)c3cn(C)cn3)cc2C1=O | inactive | active | inactive |
| C[C@H]1CN([C@@H](C)CO)C(=O)c2cc(NS(=O)(=O)c3ccc(Cl)cc3)ccc2O[C@@H]1CN(C)Cc1ccc(-c2ccccc2)cc1 | inactive | inactive | inactive |
| c1ccc(-c2[nH]nc3ccccc23)cc1 | inactive | inactive | inactive |
| CCO[C@@H]1OC(C(=O)N2CCN(Cc3ccc4c(c3)OCO4)CC2)=C[C@H](C)[C@H]1CCCOC(=O)NCCCCCC(=O)NO | inactive | inactive | inactive |
| C[C@H]1CN([C@@H](C)CO)C(=O)Cc2cc(NC(=O)CCN3CCOCC3)ccc2O[C@@H]1CN(C)CC1CCCCC1 | inactive | inactive | inactive |
| CC=Cc1ccc2n(c1=O)C[C@H]1[C@H](CO)[C@@H](C(=O)NCC3CC3)[C@@H]2N1S(=O)(=O)c1cn(C)cn1 | inactive | inactive | inactive |
| C[C@H](CO)N1C[C@H](C)[C@@H](CN(C)Cc2ccc(-c3ccccc3)cc2)Oc2ccc(NC(=O)Cc3cn(C)c4ccccc34)cc2CC1=O | inactive | inactive | inactive |

| Structure (SMILES) | cytotoxicity call (HSkMC) | cytotoxicity call (HepG2) | growth inhibition call (S. aureus RN4220) |
| --- | --- | --- | --- |
| O=C(C[C@@H]1CC=CCC[C@H](Cc2ccc(F)cc2)C(=O)OC[C@H](Cc2c[nH]c3ccccc23)NC1=O)N[C@@H](CO)Cc1ccccc1 | inactive | inactive | inactive |
| Cc1cccc(NC(=O)Nc2ccc3c(c2)C(=O)N(C)[C@@H]2CC[C@@H](CC(=O)NCc4ccccc4Cl)O[C@H]2CO3)c1 | inactive | inactive | inactive |
| C[C@H]1CN([C@@H](C)CO)C(=O)Cc2cc(NC(=O)C3CC3)ccc2O[C@H]1CN(C)Cc1ccc(C(=O)O)cc1 | inactive | inactive | inactive |
| C[C@@H]1CCCCO[C@H](CN(C)Cc2ccc(Cl)c(Cl)c2)[C@H](C)CN([C@@H](C)CO)C(=O)c2cc(NS(C)(=O)=O)ccc2O1 | inactive | active | inactive |
| C[C@@H]1CN([C@H](C)CO)C(=O)c2cc(C3=CCCCC3)cnc2O[C@@H]1CN(C)S(=O)(=O)c1cn(C)cn1 | inactive | inactive | inactive |
| COc1ccc([Si](C)(C)[C@H]2[C@H](CC(=O)N3Cc4ccccc4C[C@H]3CO)O[C@@]3(C(=O)N(Cc4ccc(N5CCC5=O)cc4)c4ccccc43)[C@@H]2C)cc1 | inactive | inactive | inactive |
| C[C@H]1CN([C@@H](C)CO)S(=O)(=O)c2ccc(C#CC3(O)CCCC3)cc2O[C@H]1CN(C)C(=O)c1ccccc1 | inactive | inactive | inactive |
| NC(=O)c1ccc2nc(-c3ccc(C4(N)CCC4)cc3)c(-c3ccccc3)n2n1 | inactive | inactive | inactive |
| C[C@@H]1CN([C@@H](C)CO)C(=O)c2cc(NC(=O)CCCN(C)C)ccc2O[C@@H]1CN(C)Cc1ccc2c(c1)OCO2 | inactive | inactive | inactive |
| C[C@H]1CCCCO[C@H](CN(C)C(=O)c2ccccc2)[C@@H](C)CN([C@@H](C)CO)C(=O)c2cc(NC(=O)CCC(F)(F)F)ccc2O1 | inactive | inactive | inactive |
| C[C@@H]1CN([C@H](C)CO)C(=O)c2cc(NC(=O)C3CC3)ccc2O[C@@H]1CN(C)C(=O)NC1CCCCC1 | inactive | inactive | inactive |
| Cc1noc(C)c1S(=O)(=O)Nc1ccc2c(c1)C(=O)N([C@H](C)CO)C[C@@H](C)[C@@H](CN(C)S(C)(=O)=O)OCCCC[C@H](C)O2 | inactive | inactive | inactive |
| C[C@H]1CN([C@@H](C)CO)C(=O)c2cccc(NC(=O)NC3CCCCC3)c2O[C@H]1CN(C)S(=O)(=O)c1cn(C)cn1 | inactive | inactive | inactive |
| CC(O)C(=O)O.CCOc1ccc2nc3cc(N)ccc3c(N)c2c1 | inactive | active | inactive |
| COCC#Cc1ccc2c(c1)O[C@H](CN(C)S(=O)(=O)c1cccc(OC)c1)[C@@H](C)CN([C@H](C)CO)S2(=O)=O | inactive | inactive | inactive |
| C[C@@H]1CCCCO[C@@H](CN(C)Cc2ccc3c(c2)OCO3)[C@@H](C)CN([C@@H](C)CO)C(=O)c2cc(NC(=O)NC3CCCCC3)ccc2O1 | inactive | inactive | inactive |
| COc1ccc(S(=O)(=O)N(C)C[C@@H]2OCCCC[C@H](C)Oc3ccc(NC(=O)c4ccccc4)cc3C(=O)N([C@H](C)CO)C[C@H]2C)cc1 | inactive | inactive | inactive |
| COc1ccc(S(=O)(=O)Nc2ccc3c(c2)C(=O)N([C@@H](C)CO)C[C@H](C)[C@@H](CN(C)Cc2ccc4c(c2)OCO4)OCCCC[C@@H](C)O3)cc1 | inactive | inactive | inactive |
| C[C@H](CO)N1C[C@H](C)[C@H](CN(C)Cc2ccc(C(F)(F)F)cc2)OCCCC[C@H](C)Oc2ccc(NS(=O)(=O)c3ccccc3)cc2C1=O | inactive | active | inactive |
| COc1cccc(S(=O)(=O)N(C)C[C@H]2Oc3ncc(C#CC(C)C)cc3C(=O)N([C@H](C)CO)C[C@H]2C)c1 | inactive | inactive | inactive |
| C[C@@H]1CN([C@H](C)CO)C(=O)Cc2cc(NC(=O)Cc3ccccc3)ccc2O[C@H]1CN(C)Cc1ccc(Cl)c(Cl)c1 | inactive | inactive | inactive |
| CSC(=N)NCCC[C@H](N)C(=O)O | inactive | inactive | inactive |
| C[C@H](NC(=O)C[C@H]1C[C@H]2c3cc(NC(=O)Nc4ccc(C(F)(F)F)cc4)ccc3O[C@H]2[C@@H](CO)O1)c1ccccc1 | inactive | inactive | inactive |
| COc1ccc(S(=O)(=O)N[C@@H]2C=C[C@@H](CC(=O)N3CCC(Cc4ccccc4)CC3)O[C@@H]2CO)cc1 | inactive | inactive | inactive |
| C[C@@H]1CCCCO[C@@H](CN(C)C(=O)Nc2ccc3c(c2)OCO3)[C@@H](C)CN([C@@H](C)CO)C(=O)c2cc(NC(=O)Nc3ccc(C(F)(F)F)cc3)ccc2O1 | inactive | inactive | inactive |
| C[C@@H]1CN([C@H](C)CO)C(=O)Cc2cc(NS(C)(=O)=O)ccc2O[C@@H]1CN(C)C(=O)NC1CCCCC1 | inactive | inactive | inactive |
